PubChem BioAssay AID602332 (National Center for Advancing Translational Sciences (NCATS), 2012)
“And” between values parts separate entries of the source, which are not always exact repeats. Equal entries are not always repeated. The campaign covered roughly 420,000 compounds. About 75 (0.02%) were called active. The inconclusive results got no clear call from the source; some entries with a clear call stand among them for comparison. The call rests on the fitted dose curve; in most records, active means well fitted activation curve with a large enough effect; inconclusive means small, poorly fitted or top-dose-only effect; inactive means no such curve, though single readings can be large or run the other way. Where the call is inconclusive, the potency comes from a doubtful curve fit.

Assay: qHTS for Inducers of the Endoplasmic Reticulum Stress Response (ERSR) in Human Glioma: qHTS; further: nearly all actives have a fitted effect of over 35% in size; on activation: % of control where 0% means no effect
Conditions: U87-MG GRP78 promoter luciferase reporter, 16 h; activation: hits give high values
In short: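 Stably transfected U87-MG glioma cells carrying a GRP78-based luciferase sensor; 16 h compound incubation. Luminescence end-point read 10 min after Bright-Glo addition at room temperature.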
Potency means the concentration at half of the fitted maximal effect; tags describe the fitted curve by direction and shape.

Q: For `CC1(C)O[C@@H]2[C@H](O1)[C@@H](CO)O[C@H]2n1cnc2c(=O)[nH]cnc21`, which activation is on record?
A: Its activation is inactive: -4.9%.

Q: Which activation does the source give for `O=C(NCCc1ccccc1)c1cc(-c2ccc3c(c2)OCO3)on1` here?
A: The activation was inactive: -1.01%.

Q: With `Nc1c(-c2ccc(Cl)cc2)nnn1-c1ccccc1` as the molecule, how does the Potency read?
A: Its Potency is inconclusive: 7.94 µM [activator, partial curve, poor fit].

Q: Which Potency does the source give for `O=C(NCCCn1ccnc1)c1cc(-c2ccccc2)on1` here?
A: Its Potency is inconclusive: 10 µM [activator, full curve, poor fit].

Q: With `c1ccc(Nc2scc(-c3ccccc3)[n+]2Cc2ccco2)cc1` as the molecule, how does the Potency read?
A: The Potency was inconclusive: 10 µM [activator, single point].

Q: For `CCCCN1CCC[C@@H]1CNC(=O)c1cc(C#N)c2ccccc2c1OC`, which Potency is on record?
A: Its Potency is inconclusive: 50.1 µM [activator, single point].

Q: Which activation does the source give for `Cc1cccc(C2NC(=O)c3c(sc4c3CCN(C)C4)N2)c1O` (centres undefined) here?
A: The activation was inactive: 0.0234%.

Q: With `O=C(N=C1N=C2C=CC(Br)=CN2Cc2ccccc21)c1ccc([N+](=O)[O-])cc1[N+](=O)[O-]` as the molecule, how does the Potency read?
A: Its Potency is inconclusive: 31.6 µM [activator, single point].

Q: For `COc1cc(O)cc(OC)c1OC`, which Potency is on record?
A: The Potency was inconclusive: 44.7 µM [activator, partial curve, poor fit].

Q: Which Potency does the source give for `CCCn1c(=O)[nH]c(=O)c2c1nc(-c1ccccc1)n2CCN1CCOCC1` here?
A: Its Potency is inconclusive: 28.2 µM [activator, single point].

Q: With `CC(C)COc1ccc(-c2nnc(-c3ccncc3)o2)cc1` as the molecule, how does the Potency read?
A: The Potency was inconclusive: 5.62 µM [activator, partial curve, poor fit].

Q: Which Potency does the source give for `Cc1cccc(NC(=S)N2N=CCC2c2ccccc2)c1` (centres undefined) here?
A: Its Potency is inconclusive: 12.6 µM [activator, single point].

Q: For `CCOc1ccc(C(=O)Nc2ccc(Cl)cn2)cc1Cl`, which Potency is on record?
A: Its Potency is inconclusive: 4.47 µM [activator, single point].

Q: With `O=C(COC(=O)Cc1ccccc1F)Nc1ccc(SC(F)F)cc1` as the molecule, how does the activation read?
A: Its activation is inactive: -0.774%.

Q: With `O=C(/C=C/c1ccc(F)cc1)c1cc(Br)ccc1O` as the molecule, how does the activation read?
A: Its activation is inactive: 6.15%.

Q: For `O=S(=O)(Nc1cccc2cccnc12)c1ccccc1`, which Potency is on record?
A: The Potency was inconclusive: 28.2 µM [activator, single point].

Q: For `O=C(Cn1cc(SCc2ccccc2)c2ccccc21)N1CCCCC1`, which Potency is on record?
A: The Potency was inconclusive: 14.1 µM [activator, single point].

Q: With `O=[N+]([O-])c1ccccc1CNC1CCCCCC1` as the molecule, how does the Potency read?
A: Its Potency is inconclusive: 14.1 µM [activator, single point].

Q: For `O=C(Nc1nccs1)C1Cc2ccccc2CN1S(=O)(=O)c1ccc(F)cc1` (centres undefined), which Potency is on record?
A: Its Potency is inconclusive: 14.1 µM [activator, partial curve, poor fit].

Q: Which Potency does the source give for `CCN(CC)CCCC1(CN)OCCc2ccccc21` (centres undefined) here?
A: The Potency was inconclusive: 50.1 µM [activator, single point].

Q: With `COc1nc(-c2ccc(C)cc2)ccc1-c1noc(-c2cccnc2)n1` as the molecule, how does the activation read?
A: Its activation is inactive: -1.14% and inactive: -4.4%.

Q: With `Cc1ccc2c(CC(=O)N3CCN(c4cccc(Cl)c4)CC3)coc2c1C` as the molecule, how does the activation read?
A: The activation was inactive: -2.03%.

Q: With `COC(=O)C1CCN(Cc2ccc(OCCCN3CCN(c4ccc([N+](=O)[O-])cc4)CC3)cc2)CC1` as the molecule, how does the activation read?
A: Its activation is inactive: -3.14%.

Q: With `O=C(Nc1ccc(F)c(Cl)c1)c1cc(C2CCCCN2C(=O)c2cccs2)on1` (centres undefined) as the molecule, how does the activation read?
A: Its activation is inactive: -3.81%.

Q: With `Cc1ccc(O)c(N=CC2=C(O)c3ccccc3C2=O)c1` as the molecule, how does the Potency read?
A: The Potency was active: 31.6 µM.

Q: For `CCOC(=O)c1ccc(NC(=S)N2CCSC2c2ccc(Cl)cc2)cc1` (centres undefined), which Potency is on record?
A: The Potency was inconclusive: 15.8 µM [activator, full curve, poor fit].

Q: Which Potency does the source give for `CCC(C)c1ccc(C2C3=C(Nc4nc(N)[nH]c(=O)c42)c2ccccc2C3=O)cc1` (centres undefined) here?
A: Its Potency is inconclusive: 28.2 µM [activator, full curve, poor fit].

Q: Which Potency does the source give for `O=C(N/N=C/c1ccc([N+](=O)[O-])s1)c1ccncc1` here?
A: Its Potency is inconclusive: 50.1 µM [activator, single point].

Q: With `O=C(NNC(=O)C12CC3CC(CC(C3)C1)C2)c1ccccn1` as the molecule, how does the Potency read?
A: Its Potency is inconclusive: 44.7 µM [activator, partial curve, poor fit].

Q: With `Cc1ccc2c(c1)/C(=C/c1ccccc1)C(=O)N2` as the molecule, how does the Potency read?
A: The Potency was inconclusive: 44.7 µM [activator, partial curve, poor fit].

Q: Which Potency does the source give for `C/C(=N\NC(=O)COc1ccc(C(C)(C)C)cc1)c1ccccc1` here?
A: Its Potency is inconclusive: 50.1 µM [activator, single point].

Q: For `COc1ccc(/C=N/NC(=O)c2cc3c(OC)ccc(OC)c3[nH]2)cc1O`, which activation is on record?
A: The activation was inactive: -8.99%.

Q: With `Cc1cc2oc(=O)cc(C)c2cc1NC(=O)CCl` as the molecule, how does the Potency read?
A: Its Potency is inconclusive: 25.1 µM [activator, full curve].

Q: For `C/C(=N\NC(=O)CSCc1ccccc1Cl)c1cc(O)ccc1O`, which activation is on record?
A: Its activation is inactive: -0.462%.

Q: With `C=CCc1ccccc1OCCn1ccnc1` as the molecule, how does the Potency read?
A: Its Potency is inconclusive: 50.1 µM [activator, single point].

Q: For `Cc1ccc(C)c(NS(=O)(=O)c2ccc3oc(=O)c4ncn(C)c4c3c2)c1`, which Potency is on record?
A: The Potency was inconclusive: 44.7 µM [activator, partial curve, poor fit].

Q: For `Cc1cccc(NC(=S)N(CCCN2CCCC2)Cc2cccn2Cc2ccc(Cl)cc2)c1`, which activation is on record?
A: The activation was inactive: -4.63%.

Q: Which activation does the source give for `O=C(COC(=O)c1cccnc1Cl)NC(=O)c1ccc(OC(F)F)cc1` here?
A: Its activation is inactive: 3.63%.

Q: Which Potency does the source give for `CCOC(=O)C1CCN(C(=O)Cn2ncc3c4ccccc4n(Cc4ccccc4)c3c2=O)CC1` here?
A: Its Potency is active: 31.6 µM.

Q: With `CCOC(=O)NC1(NCC(C)C)Oc2ccccc2O1` as the molecule, how does the Potency read?
A: The Potency was inconclusive: 10 µM [activator, partial curve, poor fit].

Q: With `CC(Oc1ccccc1)C(=O)Nc1nc(-c2ccccn2)cs1` (centres undefined) as the molecule, how does the activation read?
A: Its activation is inactive: 4.97%.

Q: With `O=c1sc2ccccc2n1CCOc1ccccc1` as the molecule, how does the Potency read?
A: Its Potency is inconclusive: 3.16 µM [activator, full curve].

Q: Which Potency does the source give for `Cc1csc(NC(=O)CCC(=O)N(CC(=O)NC2CCCC2)Cc2ccccc2)n1` here?
A: The Potency was inconclusive: 25.1 µM [activator, single point].

Q: For `Cc1ccc(CC(Cc2nc3ccccc3[nH]2)c2nc3ccccc3[nH]2)cc1` (centres undefined), which Potency is on record?
A: The Potency was inconclusive: 39.8 µM [activator, partial curve].
